The list shows a part of the results.

The assay has as its system S. aureus RN4220. The experiment in a line: growth inhibition call (relative growth <= 0.2). The conditions noted are these: 50 µM.
On to `CCC(CC)[C@H](NC(C)=O)[C@@H]1[C@H](O)[C@@H](C(=O)O)C[C@H]1NC(=N)N`, for which the growth inhibition call was “inactive”. The same measure for `C[C@H]1CCCCO[C@H](CN(C)S(=O)(=O)c2ccccc2)[C@@H](C)CN([C@@H](C)CO)C(=O)c2cc(NC(=O)NC3CCCCC3)ccc2O1`: “inactive”.

As for `COC(=O)[C@@H]1[C@@H](CO)[C@@H]2Cn3c(ccc(-c4cncnc4)c3=O)[C@@H]2N1C(=O)C1CCC1`, the growth inhibition call was “inactive”.

In the case of `C[C@@H]1CN([C@H](C)CO)C(=O)c2cc(NC(=O)NC3CCCCC3)ccc2O[C@@H]1CN(C)C(=O)Nc1ccc(C(F)(F)F)cc1`, the growth inhibition call was “inactive”. As to `Nc1ccn(C2CSC(CO)O2)c(=O)n1` (stereo unspecified), the growth inhibition call was “inactive”.

Regarding `CO[C@H]1CN(C)C(=O)c2ccc(NS(=O)(=O)c3cn(C)cn3)cc2OC[C@H](C)N(Cc2cccc(F)c2)C[C@@H]1C`, the growth inhibition call is “inactive”. `CC(=O)N(C)C[C@H]1Oc2ncc(C#C[C@H](C)O)cc2C(=O)N([C@H](C)CO)C[C@H]1C`: the growth inhibition call is “inactive”. As for `C[C@@H]1CN([C@@H](C)CO)C(=O)c2c(c3ccccc3n2C)-c2ccccc2CO[C@H]1CN(C)S(=O)(=O)c1cn(C)cn1`, the growth inhibition call was “inactive”. The same measure for `CC(C)(CO)C(O)C(=O)NCCCO` (stereo unspecified): “inactive”; for `Cc1noc(C)c1S(=O)(=O)N(C)C[C@@H]1OCCCC[C@@H](C)Oc2ccc(NC(=O)Nc3ccc(F)cc3)cc2C(=O)N([C@@H](C)CO)C[C@H]1C`: “inactive”; for `COc1ccc(CN(C)C[C@H]2Oc3ccc(NS(=O)(=O)c4cn(C)cn4)cc3C(=O)N([C@H](C)CO)C[C@H]2C)cc1`: “inactive”. The same measure for `COc1ccc2c3c(n(c2c1)C)[C@H](CO)N(Cc1cc(cc(c1)OC)OC)C[C@]13CCN(CC1)C(=O)CN1CCOCC1`: “inactive”. On to `C=CCN(CC=C)S(=O)(=O)c1nnc[nH]1`, for which the growth inhibition call is “inactive”. With `COc1ccccc1CNC(=O)C[C@H]1CC[C@@H]2[C@H](COC[C@H](O)CN2C(=O)Nc2ccc(Cl)cc2)O1`, the growth inhibition call is “inactive”. Take `CCCc1ccc2c(c1)CNCCC2`: the growth inhibition call is “inactive”. The same measure for `COc1ccc(S(=O)(=O)N(C)C[C@@H]2Oc3ccc(NC(=O)CCC(F)(F)F)cc3CC(=O)N([C@H](C)CO)C[C@H]2C)cc1`: “inactive”; for `COCC(=O)Nc1ccc2c(c1)C(=O)N(C)C[C@H](OC)[C@@H](C)CN(C(=O)Cc1cccnc1)[C@H](C)CO2`: “inactive”. `CC1=NN(c2ccccc2)C(=O)C1`: the growth inhibition call was “inactive”.

Take `COc1ccc(NC(=O)N(C)C[C@@H]2Oc3cc(C#CCN(C)C)ccc3S(=O)(=O)N([C@@H](C)CO)C[C@@H]2C)cc1`: the growth inhibition call was “inactive”. As for `O=C(Nc1nccs1)[C@@H]1[C@@H](CO)[C@@H]2Cn3c(cccc3=O)[C@@H]2N1C(=O)C1CC1`, the growth inhibition call is “inactive”. For the molecule `C[C@@H]1CN([C@@H](C)CO)C(=O)CCCn2cc(nn2)CO[C@@H]1CN(C)S(=O)(=O)c1ccc(C#N)cc1`, the growth inhibition call was “inactive”.

Source of the values: the antibiotic and cytotoxicity screens of Wong et al. (2023).
